The text below walks through data of PubChem BioAssay AID488969 (Vanderbilt High Throughput Screening Facility, 2010).

Each structure is given as a SMILES string. Whole data set: some 110,000 compounds, median “z-score” near -0.1, cut for the highest 2% near 2. This is one part of the list. The source made the active and inactive calls.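 The calls were made as follows: active = z-score in the third read window above 3 or below -3; inactive = the rest.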

The test addresses Metabotropic glutamate receptor 8 (Rattus norvegicus) (UniProt P70579). The experiment in a line: rat mGluR8 modulators via GIRK flux, primary screen, cell-based, thallium flux, HTS (AID 488969). The conditions noted are these: HEK293 rat mGluR8, GIRK (G protein-gated inwardly rectifying potassium channel) thallium flux, FluoZin2; at 10 µM; stronger effect = higher value; submaximal glutamate (EC20) added with thallium.
Chain of UniProt P70579 (P70579 whole entry, looked up): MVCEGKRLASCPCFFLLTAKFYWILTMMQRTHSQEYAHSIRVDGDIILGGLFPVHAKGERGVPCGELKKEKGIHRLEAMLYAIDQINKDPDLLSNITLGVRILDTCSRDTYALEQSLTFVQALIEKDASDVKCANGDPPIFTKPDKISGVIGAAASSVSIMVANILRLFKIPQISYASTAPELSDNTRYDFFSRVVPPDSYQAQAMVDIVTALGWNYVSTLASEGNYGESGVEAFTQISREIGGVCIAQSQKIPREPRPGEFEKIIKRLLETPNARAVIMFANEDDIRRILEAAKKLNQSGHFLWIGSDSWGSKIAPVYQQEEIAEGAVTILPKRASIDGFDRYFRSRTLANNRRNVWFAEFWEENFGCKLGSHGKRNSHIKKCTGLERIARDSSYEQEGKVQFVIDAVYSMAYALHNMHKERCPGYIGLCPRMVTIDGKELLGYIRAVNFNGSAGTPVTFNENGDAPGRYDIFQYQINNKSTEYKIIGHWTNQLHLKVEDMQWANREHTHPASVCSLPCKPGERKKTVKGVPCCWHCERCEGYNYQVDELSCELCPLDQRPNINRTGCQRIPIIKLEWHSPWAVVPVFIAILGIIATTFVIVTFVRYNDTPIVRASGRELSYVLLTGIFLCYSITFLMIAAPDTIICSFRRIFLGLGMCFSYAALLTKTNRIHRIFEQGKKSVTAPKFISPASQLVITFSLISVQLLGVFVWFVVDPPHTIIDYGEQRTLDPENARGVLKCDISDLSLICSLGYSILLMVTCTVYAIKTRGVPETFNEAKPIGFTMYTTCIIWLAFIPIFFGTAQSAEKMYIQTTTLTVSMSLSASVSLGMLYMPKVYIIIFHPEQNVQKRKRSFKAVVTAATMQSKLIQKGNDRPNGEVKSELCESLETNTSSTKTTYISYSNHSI
In turn, `CCCCOc1ccc(C(=O)N/C(=C\c2ccc(OC)cc2)C(=O)OCc2ccco2)cc1` had a z-score of 0.333.

The compound `CCCCC(=O)Nc1cc(N(C)C)nc2ccccc12` displayed a z-score of -0.432.

As to `O=C(c1ccc(F)cc1)C(CCCCCC(CN1CCOCC1)C(=O)c1ccc(F)cc1)CN1CCOCC1` (stereo unspecified), the z-score turned out to be 1.92.

The compound `Cc1ccc(SCC(=O)NC(=O)Nc2ccc3c(c2)OCCO3)cc1C` displayed a z-score of -0.0622.

Consider `O=S(=O)(NC1CCCCC1NS(=O)(=O)c1ccc(F)cc1)c1ccc(F)cc1` (stereo unspecified), for which the z-score was -0.667.

`CCN(CC)S(=O)(=O)c1cc(C(=O)Nc2ccccc2[N+](=O)[O-])ccc1Cl` yielded a z-score of -0.134.

As to `Cc1ccc(N=Cc2ccc[nH]2)c(O)c1`, the z-score is -0.0743.

As for `Cc1nc(=O)c(-c2ccccc2)c(C)n1CCCCCC(=O)O`, the z-score is -0.133.

Compound `CCOC(=O)CSc1nnc(CSc2nc(N)c3c(C)c(C)sc3n2)n1-c1ccccc1` returned a z-score of -0.194.

For the compound `Oc1ccc(Cl)cc1CNCC1CCCO1` (stereo unspecified), the z-score was -1.24.

In the case of `COc1c2ccc(C(=O)NCCCCc3ccccc3)cc2nn1C`, the z-score was determined as 0.0978.

Regarding `CC(CCc1ccccc1)NC(=O)Cc1ccc([N+](=O)[O-])cc1` (stereo unspecified), the z-score was -1.51.

`CCOC(=O)c1sc(NC(=O)CN2C(=O)NC3(CC(C)CC(C)(C)C3)C2=O)c(C(=O)OCC)c1C` (stereo unspecified) registered a z-score of -0.126.

`COc1ccc(N2CCN(/C(=N\S(=O)(=O)c3ccc(C)cc3)Nc3nc(C)cc(C)n3)CC2)cc1`: the z-score is -0.421.

`O=C(Cn1c(C(F)(F)F)nc2ccccc21)OCC(=O)c1c[nH]c2ccccc12`: the z-score is -0.594.

`Cn1c(=O)c(C(=O)c2ccccc2)nc2ccccc21` registered a z-score of 0.00614.

For `Cn1c(SCc2nc(-c3ccccc3)no2)nnc1-c1cccs1`, the z-score is -0.0325.

As for `COc1ccc(N(CC(=O)NCc2ccc3c(c2)OCO3)S(C)(=O)=O)cc1OC`, the z-score is -0.87.

As to `O=C(NCCc1ccccc1)c1cccnc1N1CCCCCC1`, the z-score is -0.918.

As to `CCCCNc1cc(C)nc(N2CCOCC2)n1`, the z-score was -0.087.

For `CCc1cc2c(=O)n(CC)c(SC(C)C(=O)Nc3c(C)n(C)n(-c4ccccc4)c3=O)nc2s1` (stereo unspecified), the z-score is active: -3.33.

Turning to `CCCC(=O)Nc1nc2ccc(NC(=O)c3ccc(Br)o3)cc2s1`, the z-score is -1.05.

Turning to `FC(F)(F)c1cc(-c2ccco2)nc(NCc2cccs2)n1`, the z-score was 0.0189.

The compound `COc1cccc(CSc2nc3ccccc3cc2C=O)c1` gave a z-score of -1.37.

As to `Clc1ccc2nc(-c3ccncc3)cc(-c3ccccc3)c2c1`, the z-score came out at 0.109.

On to `CCOCCCNCc1ccc(OC)cc1`, for which the z-score is -0.409.

For `COCCn1c(=S)[nH]c2cc(C(=O)NCCc3ccc(OC)c(OC)c3)ccc2c1=O`, the z-score is -0.0271.

`O=C(Cc1ccccc1)Nc1cc(Cl)ccc1Sc1ccccc1`: the z-score was determined as 0.037.

With `CCOC(=O)c1sc(C)c2c1NC(c1ccc(Cl)cc1)NC2=O` (stereo unspecified), the z-score is 0.0644.

In turn, `CC1Cc2ccccc2N1c1ncnc2c1nnn2Cc1ccccc1Cl` (stereo unspecified) yielded a z-score of -0.251.

Turning to `Cc1cc(C)c2[nH]c(=O)c(C(c3nnnn3C(C)(C)C)N(Cc3ccco3)CC3CCCO3)cc2c1` (stereo unspecified), the z-score is -0.324.

As to `CCOC(=O)c1ccc(NC(=S)NC2CCCC2)cc1`, the z-score was found to be 2.61.

In turn, `Cc1ccc(NC(=O)c2ccccc2)s1` gave a z-score of -0.277.

For `CCOC(=O)N1CCN(S(=O)(=O)c2cc(OCC)ccc2OCC)CC1`, the z-score was -0.0833.

Turning to `CCCn1c(=O)n(C)c(=O)c2c(SCC(=O)NC34CC5CC(CC(C5)C3)C4)nc(CC(C)C)nc21`, the z-score was -0.263.

`COc1cc(OC)cc(C(=O)Nc2ccc([N+](=O)[O-])cn2)c1` had a z-score of -0.173.

`CCCCN(Cc1cc2cc(OC)ccc2[nH]c1=O)C(=O)COc1ccccc1` gave a z-score of -0.254.

`CCOC(=O)N1CCN(C(=O)C2CCCN(Cc3nc(-c4ccc(Cl)cc4)oc3C)C2)CC1` (stereo unspecified): the z-score was -0.063.

Compound `Cc1sc2ncnc(Nc3ccc(N4CCOCC4)cc3)c2c1-c1ccccc1` yielded a z-score of -0.6.

`CC(C)(C)C(=O)NC(=S)Nc1ccccc1C(N)=O` registered a z-score of -0.144.

Compound `COc1cc2c(cc1NC(=O)c1cccc(Br)c1)CCCC2` gave a z-score of 0.201.

With `Cc1ccc(NCc2nnc(SCCN3CCCCC3)n2CC2CCCO2)cc1Cl` (stereo unspecified), the z-score is -0.312.

As to `CCCOCCOC(=O)C1=C(C)NC(=O)NC1c1cc(Cl)c(O)c(OC)c1` (stereo unspecified), the z-score came out at 0.159.

The compound `CSCCC1NC(=O)N(CC(=O)Nc2cccc3ccccc23)C1=O` (stereo unspecified) returned a z-score of 0.0967.

With `Cc1cccc(OCCCC(=O)Nc2nccs2)c1`, the z-score was -0.848.

Consider `CNC(=S)NCc1ccc(Cl)cc1`, for which the z-score was determined as 0.0853.

With `CCc1cccc(NC(=O)C2CCCN(S(=O)(=O)c3c(C)[nH]c(=O)[nH]c3=O)C2)c1` (stereo unspecified), the z-score is -0.32.

`CC(=O)/C(=N\Nc1ccccc1)Sc1cccc2cccnc12` returned a z-score of -0.115.

For `O=C(COC(=O)c1cc2ccccc2oc1=O)c1cccc([N+](=O)[O-])c1`, the z-score was -0.0516.

Regarding `C/C=C(\CS(=O)(=O)c1ccccc1)S(=O)(=O)c1ccccc1`, the z-score was -0.484.

`CC(O)Cc1nsc(NC(=O)c2ccc(Br)o2)n1` (stereo unspecified) returned a z-score of 0.0681.

Regarding `O=C(Cc1ccccc1)NNC(=O)c1cnccn1`, the z-score is -0.0608.

For `Fc1cccc2sc(Nc3nc4cc5c(cc4s3)OCCO5)nc12`, the z-score stood at 2.25.

Compound `COc1ccc(CC(=O)NC2=NCCS2)cc1` showed a z-score of 0.0759.

As to `CC(C)OP(=O)(c1ccc(N(C)C)cc1)C(O)c1ccccc1` (stereo unspecified), the z-score came out at 0.033.

In the case of `Cc1nnc(SCC(=O)NC(C)(C)C)n1C1CCCCC1`, the z-score is -0.279.
